Where “and” joins values, the source holds several entries; their conditions need not be identical. Identical values can stand only once. The shares of active, inactive and inconclusive entries below differ from those in the screen. Where a call stands in place of a potency, no number is given. For part of these data: A potency beside an inconclusive call is a rough fit, not a confirmed value. Calls of active or inactive are those of the source. Unless noted, calls follow the shape of the full dose curve.
System: not listed separately
Experiment: qHTS assay to identify small molecule antagonists of the sonic hedgehog signaling (Shh) pathway - cell viability counter screen (AID 1259367; active = well fitted cell-killing curve with a large enough effect in the repeat runs; inconclusive = weak or mixed curves, or effect the other way; inactive = no such curve, though single readings can be large or run the other way; also: nearly all actives have a fitted effect of over 55% in size)
Settings: NIH/3T3 Gli1-Luc viability, CellTiter-Fluor, 24 h; series mostly up to 92.4 µM
In short: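 Cytotoxicity was assessed in parallel with Shh reporter activity by measuring live-cell protease fluorescence (CellTiter-Fluor) in NIH/3T3 cells stably carrying Gli1-Luc, treated with compound under conditioned medium stimulation for 23 hr plus 1 hr reagent incubation.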
For `O=C(O)/C=C/C(=O)O`, the Potency was “inactive”.
With `NC(=O)c1cn(Cc2c(F)cccc2F)nn1` the Potency was “inactive”.
With `CC(C)(C)c1nnc(NS(=O)(=O)c2ccc(N)cc2)s1` the Potency was “inactive”.
With `Nc1ccc(C(=O)N2CC3CC(CN(Cc4ccccc4)C3)C2)cc1` the Potency was “inactive”.

System: not listed separately
Experiment: qHTS assay to identify small molecule antagonists of the sonic hedgehog signaling (Shh) pathway (AID 1259369); also: nearly all actives have a fitted effect of over 45% in size; also: potency is read from the fitted curve at half-maximal effect
Settings: NIH/3T3 Gli1-Luc reporter, Shh antagonist, luminescence 24 h; series mostly up to 92.4 µM
In short: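 NIH/3T3 stable Gli1-Luc clone, 2,000 cells/well, 4hr settle; cpd + conditioned medium 24hr; Luc reagent 30min RT; luminescence.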
In the case of `CCCCCCCCCOS(=O)(=O)O`, the Potency was “inactive”.
In the case of `CN1[C@@H]2CC[C@H]1CC(OC(=O)C(O)c1ccccc1)C2` (some centres not stated), the Potency was “inactive”.
In the case of `O=C1Nc2ccccc2C1=O`, the Potency was inconclusive: 24.1 µM [inhibitor, partial curve].
In the case of `CC1=C(C/C=C(\C)CCC[C@H](C)CCC[C@H](C)CCCC(C)C)C(=O)c2ccccc2C1=O`, the Potency was “inactive”.
With `O=C1NC(=O)C(c2ccccc2)(c2ccccc2)N1` the Potency was inconclusive: 15.2 µM [inhibitor, partial curve] and inconclusive: 2.73 µM [inhibitor, single point] and inconclusive: 154 nM [inhibitor, full curve, poor fit].
For `COC(=O)c1ccc(C=O)cc1`, the Potency was “inactive”.
In the case of `Clc1ccc2c(c1)Nc1ccccc1S2`, the Potency was “inactive”.
For `C/C=C1\C(=O)C[C@H]2[C@@H]3CCC4=CC(=O)CC[C@]4(C)[C@H]3CC[C@]12C`, the Potency was active: 5.99 µM.

Biological target: Estrogen receptor beta (Homo sapiens) (UniProt Q92731)
Chain of UniProt Q92731 (Q92731 whole entry, looked up): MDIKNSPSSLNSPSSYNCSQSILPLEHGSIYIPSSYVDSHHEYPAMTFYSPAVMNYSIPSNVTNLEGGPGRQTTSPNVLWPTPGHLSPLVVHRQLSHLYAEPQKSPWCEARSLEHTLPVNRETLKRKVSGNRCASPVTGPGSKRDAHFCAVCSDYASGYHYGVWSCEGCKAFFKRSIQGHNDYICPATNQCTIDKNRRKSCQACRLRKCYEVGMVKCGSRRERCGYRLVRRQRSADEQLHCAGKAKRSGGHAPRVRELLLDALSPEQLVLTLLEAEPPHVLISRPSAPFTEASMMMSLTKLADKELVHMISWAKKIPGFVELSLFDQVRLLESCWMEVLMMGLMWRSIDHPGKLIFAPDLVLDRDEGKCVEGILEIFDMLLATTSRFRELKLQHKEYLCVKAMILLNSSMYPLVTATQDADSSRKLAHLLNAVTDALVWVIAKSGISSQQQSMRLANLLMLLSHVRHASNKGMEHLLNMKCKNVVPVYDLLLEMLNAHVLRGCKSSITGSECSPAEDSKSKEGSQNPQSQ
Experiment: qHTS assay to identify small molecule agonists of the estrogen receptor beta (ER-beta) signaling pathway (AID 1259377; active = well fitted activation curve with a large enough effect in the signal ratio in the repeat runs, not every such curve was filed as active; inconclusive = weak or mixed curves, or effect the other way; the % refers to the signal ratio; also: potency is read from the fitted curve at half-maximal effect)
Settings: ER-beta-UAS-bla HEK293T, beta-lactamase FRET ratio, 16 h; activation: at 92.4 µM (top of the series) unless noted
In short: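 Agonist mode cell assay in GripTite HEK293T cells expressing an ER-beta fusion that drives beta-lactamase from an Upstream Activator Sequence; 16 hr compound exposure at 37C, then 2 h LiveBLAzer B/G FRET substrate at room temperature, fluorescence read-out.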
With `O=C(O)/C=C/C(=O)O` the Potency was “inactive”.
With `CC(C)OC(=O)C(C(=O)OC(C)C)=C1SC=CS1` the Potency was inconclusive: 16.8 µM [rising, full curve, poor fit].
In the case of `CC[N+](C)(CC)CC`, the Potency was “inactive”.
In the case of `c1ccc2c(c1)[nH]c1ccccc12`, the activation was inconclusive: 13.5%.
For `COC(=O)c1ccc(C=O)cc1`, the activation was inconclusive: 9.78% and inconclusive: 10.3%.

Biological target: Estrogen receptor beta (Homo sapiens) (UniProt Q92731)
Experiment: qHTS assay to identify small molecule antagonists of the estrogen receptor beta (ER-beta) signaling pathway (AID 1259378; active = well fitted inhibition curve with a large enough effect in the signal ratio in the repeat runs, not every such curve was filed as active; inconclusive = weak or mixed curves, or effect the other way; inactive = no such curve, though single readings can be large or run the other way; the % refers to the signal ratio; also: potency is read from the fitted curve at half-maximal effect)
Settings: ER-beta-UAS-bla HEK293T, beta-lactamase FRET ratio, 16 h; activity, negative = inhibition: at 92.4 µM (top of the series) unless noted
In short: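 ER-beta-UAS-bla HEK293T (GripTite) cells in 2% charcoal-stripped FBS medium were preincubated 6 hr at 37C, dosed with compound, then stimulated with 1 nM E2 (final) for 16 hr; beta-lactamase reporter read by B/G FRET fluorescence after 2 hr substrate loading.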
With `CCCCCCCCCCOc1cc2c(=O)c(C(=O)OCC)c[nH]c2cc1OCC` the activity, negative = inhibition was inactive: 11.6% [at 8.39 µM].
In the case of `O=C(O)/C=C/C(=O)O`, the Potency was “inactive”.
For `FC(F)(F)C(F)(F)C(F)(F)C(F)(F)C(F)(F)C(F)(F)C(F)(F)C(F)(F)C(F)(F)C(F)(F)F`, the activity, negative = inhibition was inactive: 3.92% [at 8.39 µM].
For `CC(C)OC(=O)C(C(=O)OC(C)C)=C1SC=CS1`, the activity, negative = inhibition was inconclusive: -37% [at 42.5 µM].
In the case of `Cc1ccc(O)c([N+](=O)[O-])c1`, the activity, negative = inhibition was inconclusive: 16.8%.
With `CC1=C(C/C=C(\C)CCC[C@H](C)CCC[C@H](C)CCCC(C)C)C(=O)c2ccccc2C1=O` the Potency was “inactive”.
In the case of `COC(=O)c1ccc(C=O)cc1`, the Potency was “inactive”.
In the case of `C=CC(C)(O)CC/C=C(\C)CC` (configuration not stated), the Potency was “inactive”.
With `CN1CN(C)CN(C)C1` the activity, negative = inhibition was inconclusive: -35.5%.
In the case of `C/C=C1\C(=O)C[C@H]2[C@@H]3CCC4=CC(=O)CC[C@]4(C)[C@H]3CC[C@]12C`, the Potency was active: 26.8 µM.
Tags tell the direction and shape of the fitted curve or compound fluorescence and quenching.
